Measured values published in the RNAGym collection of RNA variant scans (doi:10.1101/gad.245936.114).
Variants at the floor of the assay are shown more often than the library holds them.

B1: tRNA (parent)
chain: CUCUCGGUAGCCAAGUUGGUUUAAGGCGCAAGACUUUAAUUUAUCACUACGAAAUCUUGAGAUCGGGCGUUCGACUCGCCCCCGGGAGAUUUUUUCCUCGAGCAA

Variants of: B1
Experiment: nonsense suppression (GFP-seq) (ratio to wild type); higher = more function; SUP4oc tRNA, yeast GFP reporter sort-seq
In short: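 Yeast were grown in raffinose/galactose medium with 80 mg/L adenine, each strain bearing a genome-integrated ochre-suppressor tRNA variant from a ~3% random-mutation library, a galactose-driven GFP ochre reporter, and RFP. After sorting into GFP/RFP bins, every bin was sequenced on an Illumina platform at phred ≥30. The GFPSEQ value, a measure of nonsense suppression, is the weighted bin median GFP/RFP relative to the unmutated parent tRNA, using each variant's estimated cell share per bin as the weight. Only variants with ≥100 reads and ≥30 cells were included.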

Nonsense suppression, ≤ 0.026:
CUCUCGGUAGCCAAGUUGGUUUAAGGCGCACGACUUUAAUUUAUCACUACGAAAUCUUGAGAUCGGGCGUUCGACUCGCCCCCGGGGGAUUUUUUCCUCGAGCAA
CUCUCGGUAGCCAAGUUGGUUUAAGGCGCACGACUUUAAUUUAUCACUACGAAAUCUUGAGAUCGGGCGUUCGACUCGCCCCCGGGAGGUUUUUUCCUCGAGCAA
CUCUCGGUAGCCAAGUUGGUUUAAGGCGCACGAGUUUAAUUUAUCACUACGAAAUCUUGAGAUCGAGCGUUCGACUCGCCCCCGGGAGAUUUUUUCCUCGAGCAA
CUCUCGGUAGCCAAGUUGGUUUAAGGCGCACGACUUUAAUUUAUCACUACGAAAUCUUGAGAUUGGGGGUUCGACUCGCCCCCGGGAGAUUUUUUCCUCGAGCAA
CUCUCGGUAGCCAAGUUGGUUUAAGGCGCACGACUUUAAUUUAUCACUACGAAAUCUUGAGAUCGGGACUUCGACUCGCCCCCGGGAGAUUUUUUCCUCGAGCAA
CUCUCGGUAGCCAAGUUGGUUUAAGGCGCACGACUUUAAUUUAUCACUACGAAAUCUUGAGAUCGGGCGUUGGACUCGCCCCCGGGAGAUUUUUUCCUCGAGCAA
CUCUCGGUAGCCAAGUUGGUUUAAGGCGCACGACUUUAAUUUAUCACUACGAAAUCUUGAGAUCGGGCGUUCGAUUCGACCCCGGGAGAUUUUUUCCUCGAGCAA
CUCUCGGUAGCCAAGUUGGUUUAAGGCGCACGACUUUAAUUUAUCACUACGAAAUCUUGAGAUCGGGCGUUCGACUCGCCCCGGGGAGAUUUUUUCCUCGAGCAA
CUCUCGGUAGCCAAGUUGGUUUAAGGCGCACGACUUUAAUUUAUCACUACGAAAUCUUGAGAUCGGGCGUUCGACUCGCCCCGGUGAGAUUUUUUCCUCGAGCAA
CUCUCGGUAGCCAAGUUGGUUUAAGGCGCACAACUUUAAUUUAUCACUACGAAAUAUUGAGAUCGGGCGUUCGAAUCGCCCCCGGGAGAUUUUUUCCUCGAGCAA
CUCUCGGUAGCCAAGUUGGUUUAAGGCGCACCACUUUAAUUUAUCACUACGAAAUCUUGAGAUCGGGCGUUCGACUCGCCCCCGGGAGAUUUUUUCCUCGAGCAA
CUCUCGGUAGCCAAGUUGGUUUAAGGCGCACGACUUUAAUUUAUCACUACGAAAUCUUCAGAUCGGGCGUUCGACUCGCCCCCGAGAGAUUUUUUCCUCGAGCAA
CUCUCGGUAGCCAAGUUGGUUUAAGGCGCACGACUUUAAUUUAUCACUACGAAAUCUUUAGAUCGGGCGUUCGACUCGCCCCCAGGAAAUUUUUUCCUCGAGCAA
CUCUCGGUAGCCAAGUUGGUUUAAGGCGCACGACUUUAAUUUAUCACUACGAAAUCUUGAAAUCGGGCGUUCGAGUCGCCCCCGGGAGAUUUUUUCCUCGAGCAA
CUCUCGGUAGCCAAGUUGGUUUAAGGCGCACGACUUUAAUUUAUCACUACGAAAUCUUGAGAUCGCGCGUUCGACUCGCCCCCGUGAGAUUUUUUCCUCGAGCAA
CUCUCGGUAGCCAAGUUGGUUUAAGGCGCACGACUUUAAUUUAUCACUACGAAAUCUUGAGAUCGGACGUUCGACUCGCCCCCGAGAGAUUUUUUCCUCGAGCAA
CUCUCGGUAGCCAAGUUGGUUUAAGGCGCACGACUUUAAUUUAUCACUACGAAAUCUUGAGAUCGGUAGUUCGACGCGCCCCCGGGAGAUUUUUUCCUCGAGCAA
CUCUCGGUAGCCAAGUUGGUUUAAGGCGCACGACUUUAAUUUAUCACUACGAAAUCUUGAGAUCGGGCGUUCCACUCGCCCCCGGGAGAUUUUUUCCUCGAGCAA
CUCUCGGUAGCCAAGUUGGUUUAAGGCGCACGACUUUAAUUUAUCACUACGAAAUCUUGAGAUCGGGCGUUCGACUCACCCCCGGGAGAUUUUUUCCUCGAGCAA
CUCUCGGUAGCCAAGUUGGUUUAAGGCGCACGACUUUAAUUUAUCACUACGAAAUCUUGAGAUCGGGCGUUCGACUCUCCCCCGGGAGAUUUUUUCCUCGAGCAA
CUCUCGGUAGCCAAGUUGGUUUAAGGCGCACGACUUUAAUUUAUCACUACGAAAUCUUGAGAUCGGGCGUUCGACUCGCCCCCUGGAGAUUUUUUCCUCGAGCAA
CUCUCGGUAGCCAAGUUGGUUUAAGGCGCACGACUUUAAUUUAUCACUACGAAAUCUUGAGAUCGGGCGUUCGACUCGCCCCCGGGAUAUUUUUUCCUCGAGCAA
CUCUCGGUAGCCAAGUUGGUUUAAGGCGCACGACAUUAAUUUAUCACUACGAAAUCUUGAGAUCGGGCGUUCGACUCGCCACCGGGAGAUUUUUUCCUCGAGCAA
CUCUCGGUAGCCAAGUUGGUUUAAGGCGCACGACAUUAAUUUAUCACUACGAAAACUUGAGAUCGGGCGUUCGACCCGCCCCCGGAAGAUUUUUUCCUCGAGCAA
CUCUCGGUAGCCAAGUUGGUUUAAGGCGCACGACCUUAAUUUAUCACUACGAAAUCUUGGGAUCGGGCGUUCGACUCGCCCCCGGGAACUUUUUUCCUCGAGCAA
CUCUCGGUAGCCAAGUUGGUUUAAGGCGCACGACGUUAAUUUAUCACUACGAAAUCUUGAGAUCGGGCGUUCGACUCGACCCCGAGAGAUUUUUUCCUCGAGCAA
CUCUCGGUAGCCAAGUUGGUUUAAGGCGCACGACUUUAAUUUAUCACUACGAAAGCUUGAGAUCGGGCGUUCGACUCGCCCCCGGGAGAUUUUUUCCUCGAGCAA
